From paper PMC9574860, “Chemical Toolkit for PARK7: Potent, Selective, and High-Throughput” (Journal of Medicinal Chemistry, 2022)
Hit rate of the full screen: of about 7,900 compounds, about 400 (5.1%) showed an effect of 50% or more. Some of the results follow.

These compounds were tested against Parkinson's disease protein 7 (PARK7/DJ1) (human, UniProt Q99497) (assay: primary screen, percent inhibition; read as competition with a fluorescent probe by fluorescence polarization; higher = more effect of the substance). Conditions: 100 µM.
Parkinson's disease protein 7 (PARK7/DJ1), sequence (Q99497 whole entry, looked up, the tested form may be a part): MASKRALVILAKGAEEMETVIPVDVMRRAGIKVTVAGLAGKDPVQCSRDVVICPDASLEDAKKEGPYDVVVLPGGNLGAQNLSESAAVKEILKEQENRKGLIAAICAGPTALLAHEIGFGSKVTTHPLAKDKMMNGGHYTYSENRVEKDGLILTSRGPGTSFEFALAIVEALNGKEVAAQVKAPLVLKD
Summary of the method: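 Fluorescence-polarization probe displacement (JYQ-107, 20 nM final, 2 h) after 2 h preincubation of PARK7 (0.2 μM final) with each fragment at 100 μM final. Read-out ex/em 480/520 nm; remaining activity derived from FP signal loss relative to reference controls.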

| SMILES | Inhibition % [%] |
| --- | --- |
| O=C(O)C1CCN(C(=O)C=Cc2ccccn2)C1 (stereo not drawn) | 5.15 |
| COc1ccc(F)c(NC(=O)c2cccnc2S)c1 | 4.52 |
| C=CC(=O)Nc1ccc(C(=O)O)cc1 | 2.67 |
| O=C(CCl)N1CCc2cc([N+](=O)[O-])ccc21 | 5.06 |
| O=C(CCl)Nc1ccc(C(=O)O)cc1[N+](=O)[O-] | 13.3 |
| CC1CCCCC1OCCCl (stereo not drawn) | 7.37 |
| N#CC(=Cc1cc(Cl)ccc1OCC1CCCO1)C(N)=O (stereo not drawn) | 1.94 |
| C=CC(=O)N1CCC(C)C1c1ccccc1 (stereo not drawn) | 6.89 |
| N#Cc1nc(Cc2ccccc2)oc1N | 10.7 |
| CN(Cc1ccc2ccccc2c1)C1CCOC1=O (stereo not drawn) | -0.28 |
| Cc1ccc(C(N)=O)cc1B1OC(C)(C)C(C)(C)O1 | 4.41 |
| COc1cc(CO)ccc1B1OC(C)(C)C(C)(C)O1 | 4.39 |
| Cl.O=C(CCl)N1CCN(c2cnccn2)CC1 | 55.6 |
| O=S(=O)(C=Cc1ccc(Cl)cc1)NCc1cccnc1 | 2.91 |
| CN(Cc1ccco1)C(=O)CCl | 53 |
| CC(C)C1NC(=O)C12CC=CC2 (stereo not drawn) | 9.96 |
| Cn1cc(C=CC(=O)N2CCCS2(=O)=O)c2ccccc21 | 11.8 |
| Cc1ccc2ncc(C#N)n2c1 | 3.72 |
| CCSC1CCC(Nc2ccc(C#N)nc2)C1 (stereo not drawn) | 4.36 |
| C=CC(=O)N1CCN(C(=O)CC)C1 | 9.38 |
| C=CC(=O)Nc1ccnc(OC2CCCCC2)c1 | 4.74 |

| SMILES | Inhibition % [%] |
| --- | --- |
| Fc1ccc(C2CO2)cc1F (stereo not drawn) | 7.25 |
| C=CC(=O)N1Cc2cccc(Cl)c2C1 | 7.04 |
| COc1ccccc1CSc1nccnc1C#N | 1.26 |
| COc1ccc(C2=NC(=Cc3cccnc3)C(=O)O2)cc1 | 6.21 |
| CC1CN(S(=O)(=O)C=Cc2ccccc2)CC(C)O1 (stereo not drawn) | 8.21 |
| Cl.ClCC1CNCCO1 (stereo not drawn) | 3.33 |
| N#Cc1cc(Cl)ccn1 | 52.6 |
| C=CC(=O)NCC1CCCCN1C(=O)C(F)(F)F (stereo not drawn) | 8.51 |
| CC(F)(F)C1(C(=O)Nc2cccc(S(=O)(=O)F)c2)CC1 | 95.7 |
| Cc1cc(C(=O)CCl)c(C)n1C | 72.1 |
| NC(=O)C1CCN(C(=O)C=Cc2nc3ccccc3o2)C1 (stereo not drawn) | 5.92 |
| CC1(C)OB(c2cccc(OC(F)F)c2)OC1(C)C | 3.49 |
| C=CC(=O)NC(C)(C)c1ncc(C)s1 | 8.21 |
| O=C(CCl)Nc1ccc(OC(F)F)cc1 | 82.8 |
| Cc1nc2ccccc2nc1S | 2.7 |
| O=C(CCl)c1ccc2c(c1)CCN(C(=O)C(F)(F)F)C2 | 2.68 |
| N#Cc1ccc(C2CO2)cc1 (stereo not drawn) | 6.78 |
| C=CC(=O)NC1[C@H]2CCC[C@@H]12 (stereo partly drawn) | 1.39 |
| OC1CCC(CCl)CC1 (stereo not drawn) | 1.08 |
| O=C(c1ccc(F)cc1F)N1CCCCC1C1OCCO1 (stereo not drawn) | 6.52 |
| O=C(CCl)NNC(=O)c1ccccc1Cl | 4.48 |

| SMILES | Inhibition % [%] |
| --- | --- |
| C=CC(=O)N1CCCC2(CCSC2)C1 (stereo not drawn) | 3.44 |
| Cc1cc(N)nc(SC2CC(C)OC2=O)n1 (stereo not drawn) | 8.49 |
| Fc1cccnc1N1CCCC(C2OCCO2)C1 (stereo not drawn) | 10.7 |
| C=CC(=O)N1CCc2c(cccc2C(F)(F)F)C1 | -3.37 |
| O=C1C2CCCN2C(=O)N1CCS(=O)(=O)F (stereo not drawn) | 24.6 |
| Cc1ccc2nc(NC(=O)CN3CCSC3=O)sc2c1 | 5.37 |
| C=CC(=O)NCc1nnc2n1CCCC2C(F)(F)F (stereo not drawn) | 8.99 |
| CC(C)(C)OC(=O)N1CCOc2ccc(B3OC(C)(C)C(C)(C)O3)cc2C1 | -1.61 |
| N#Cc1cc(F)ccn1 | 5.03 |
| C=CC(=O)Nc1ccc(=O)n(C)c1 | 54.1 |
| Cc1nn(C)c(Cl)c1C=CC(=O)N1CCNC(=O)C1 | 7.91 |
| C=CC(=O)NC1CCCN(c2ncccn2)C1 (stereo not drawn) | 4.88 |
| C=CC(=O)NCc1ccc2c(n1)CCCC2 | 6.7 |
| Cc1cccc(C#N)c1B1OC(C)(C)C(C)(C)O1 | -0.114 |
| O=C(CCl)N1CCCC1=O | 79.2 |
| Cl.NCc1cc(=O)[nH]c(S)n1 | 27.5 |
| CSCC(C)C(=O)N1CCN(c2ccc(C#N)nc2)CC1 (stereo not drawn) | 8.33 |
| Cn1cc(NS(=O)(=O)c2ccc(S(=O)(=O)F)cc2)cn1 | 33 |
| CN1CCC2(CCCN2C(=O)c2cccc(S(=O)(=O)F)c2)CC1 | 10.6 |
| Cl.N#Cc1ncn(C2CCNCC2)n1 | 5.75 |
| Cc1nn(C)c(Cl)c1C=CC(=O)N1CCC(C(N)=O)CC1 | 6.3 |

| SMILES | Inhibition % [%] |
| --- | --- |
| Cc1ncc(C=CC(=O)N2CCC(C)(C(=O)O)C2)s1 (stereo not drawn) | 6.2 |
| CN(C)CC(C)(C)NS(=O)(=O)C=Cc1ccccc1 | 12.8 |
| O=C(O)c1ccc2c(c1)COB2O | 0.486 |
| Cc1sc2nc(CCCCl)[nH]c(=O)c2c1C | 8.5 |
| C=CC(=O)NCc1nc2cccnc2n1C | 10.7 |
| OB(O)C1CCN(Cc2cc(-c3ccccn3)n[nH]2)C1 (stereo not drawn) | 29.8 |
| N#Cc1cc(Sc2nccs2)ccn1 | 3.81 |
| C=CC(=O)Nc1ccc2c(c1)CCC2 | 7.23 |
| CC(O)c1ccc(SC2CCOC2=O)cc1 (stereo not drawn) | 7.33 |
| Cc1cc(Cn2nc(-c3ccc(F)cc3)oc2=O)on1 | 14.5 |
| C=CC(=O)NCc1c(C)noc1C | 13.4 |
| O=C(CCl)NC(=O)Nc1ccccc1 | 28.5 |
| CC(C)(C)c1ccccc1NC(=O)CCl | 11.7 |
| O=C(N1CCN(c2ccccc2Cl)CC1)n1ccnc1 | 11.7 |
| O=C(CCl)Nc1cccc(Br)c1 | 29.1 |
| C=CC(=O)NCC1CCCC(F)(F)C1 (stereo not drawn) | 8.9 |
| CC(C)Oc1ccc(Cl)c(C#N)n1 | 4.72 |
| C=CC(=O)N1CCC(C)(C(N)=O)C1 (stereo not drawn) | 6.84 |
